Experimental findings from ChEMBL document CHEMBL4888484, “Replenishing the malaria drug discovery pipeline: Screening and hit evaluation of the MMV Hit Generation Library 1 (HGL1) against asexual blood stage Plasmodium falciparum ,using a nano luciferase reporter read-out” (2022) are described below.

Molecules are shown by their SMILES. Out of some 150,000 compounds screened, about 540 (0.36%) showed an effect of 50% or more. This is one part of the list.

For this assay, the system named is Plasmodium falciparum. Kind of assay: Primary screen in NF54 nanoGlo assay, in single point, at 2uM, 72h; a lower Z score goes with more inhibition. It is filed as functional, Erythrocyte. The settings on record: timepoint 72 hour.
As a reminder, the % Inhibition is the drop in the measured response relative to a control, in per cent. With `Cc1cc(C)nc(NCC(=O)Nc2nc(CC(C)C)n[nH]2)n1`, the “% Inhibition” value is recorded as -8% and the Z score is listed as 1.1.
For `Cc1cnc(C2CC2)n1C[C@H]1CCN(C(=O)c2ccc3ccccc3n2)C1`, in that order: -10% and 1.32.
Take `C[C@H]1CN(S(=O)(=O)c2ccc(NC(=O)c3ccccc3)cc2)c2ccccc2O1`: the “% Inhibition” value is recorded as 6% and the Z score was -0.79.
For `CCC(C)C(C)Nc1ccc(C)c(C(N)=O)c1` (stereo not given), in that order: -10% and 0.97.
Take `Cc1cc(N2CCCN(C(=O)COc3ccccc3)CC2)nc(N)n1`: the “% Inhibition” value is on record as -1% and the Z score was 0.17.
For `Cc1csc(C(C)CN2C(=O)N3CCC[C@@]3(C)C2=O)n1` (stereo not given in full), in that order: -6% and 0.53.
For `Cn1nc(C2CC2)cc1C(=O)NC[C@H]1CCC2(CCOCC2)CO1`, in that order: -4% and 0.56.
Take `CC(=O)[C@@](C)(O)CN1CCc2c(ncn2-c2ccc(F)cc2)C1`: the “% Inhibition” value is -11% and the Z score is given as 1.72.
In the case of `O=C(NCCN1CCC[C@H](CO)C1)c1cccc(-c2ncccc2Cl)c1`, the “% Inhibition” value is recorded as -5% and the Z score is listed as 0.49.
The like results for `O=C(Cn1ncc2c([nH]c3ccccc32)c1=O)Nc1ccc2c(c1)OCCO2` were, in that order, 2% and -0.27.
For `COc1ccc(S(=O)(=O)N2CCOCC2)cc1C(=O)N1CCC(CN2CC(C)OC(C)C2)CC1` (stereo not given), in that order: -6% and 0.75.
For `O=C(NCC[C@H]1CCOC1)c1cccc(OC(F)F)c1`, in that order: 1% and -0.14.
Consider `CN[C@H]1CCCN(C(=O)c2cccc(-n3ccc(C(F)(F)F)n3)c2)C1`, for which the “% Inhibition” value is -9% and the Z score is recorded as 1.24.
As to `CCCc1cc(C(=O)OCCc2c(C)nn(C)c2C)[nH]n1`, the “% Inhibition” value was -8% and the Z score was determined as 1.59.
The like results for `O=C(NC1CC1)N1CCS(=O)(=O)C[C@H]1c1ccccc1` were, in that order, -9% and 1.81.
As to `CC(C)(CCCNc1ncc(Br)cn1)C1OCCO1`, the “% Inhibition” value is -23% and the Z score amounted to 2.07.
For `Cc1ccc(C(=O)N2CCC(N3C(=O)[C@H]4CCCN4C3=O)CC2)cc1`, in that order: 29% and -0.25.
For the compound `O=C(O)C1CC2CCCCC2N1Cc1ccc(F)c(F)c1` (stereo not given), the “% Inhibition” value was -7% and the Z score was found to be 0.69.
The like results for `O=C(COc1cccc(-n2cncn2)c1)N[C@H](c1ccccc1)C1CC1` were, in that order, -9% and 1.04.
For `O=C(NCc1ccc(N2CCCC2=O)cc1)C1CCCC1`, in that order: -13% and 1.78.
The like results for `CCOC(=O)NCCC(=O)N1CCOC2CCCC21` (stereo not given) were, in that order, 10% and -1.31.
On to `COCCN(CCC(=O)NCc1ccccc1)c1nc(C2CC2)nc2cc(Cl)ccc12`, for which the “% Inhibition” value is given as -6% and the Z score is 0.67.
The like results for `CNC(=O)[C@@H](NCc1ccc2nc(C)ccc2c1)C(C)C` were, in that order, 11% and -1.17.
On to `COc1ccc(C(=O)NC[C@H]2O[C@@H](CO)[C@@H](O)[C@H]2N(C)CCc2ccccc2)cc1`, for which the “% Inhibition” value was determined as 9% and the Z score was -1.03.
For `CC1CC(NC(Cc2ccccc2)CN2CCOCC2)CC(C)O1` (stereo not given), in that order: -5% and 0.66.
For `O=C(Nc1ccc2ccccc2c1)[C@@H]1CCCO1`, in that order: -36% and 4.28.
For `CCC(CC)C(=O)Nc1cc(C)ccc1C`, in that order: -3% and 0.5.
With `CNC(=O)NC[C@H]1COCCN1Cc1coc(C(C)(C)C)n1`, the “% Inhibition” value is listed as -3% and the Z score was 0.59.
Consider `CCc1nc(N)nc(N2CCC[C@H](O)CC2)c1C`, for which the “% Inhibition” value was -1% and the Z score is given as 0.11.
For `COc1cccc(C2=CCN(C(=O)Cn3nc(C)c4cccnc43)C2)c1`, in that order: -10% and 1.49.
For `CN(CCCc1cnn(C)c1)c1cc(C2CC2)ncn1`, in that order: -1% and 0.18.
The like results for `CC[C@H](C)N(CC(=O)N1CCN(c2ccc(-c3cccc(OC)c3)nn2)CC1)C(=O)c1cccs1` were, in that order, -9% and 1.27.
For `Cn1cc(C(=O)NCc2noc(C3CC3)n2)cn1`, the “% Inhibition” value is on record as -4% and the Z score amounted to 0.44.
The like results for `CC(C)CNC(=O)c1cc2cc(NC(=O)c3cccc(F)c3)ccc2n1Cc1cccc(F)c1` were, in that order, -12% and 1.49.
`c1ccc(CCc2noc([C@H]3CCn4ccnc4C3)n2)cc1`: the “% Inhibition” value is on record as -3% and the Z score worked out at 0.45.
For `O=C(CN1CCc2ncnc(N3CCOCC3)c2C1)N1CCCC1`, in that order: 5% and -0.58.
The like results for `CCC1CC(c2nc(Cc3csc(C(C)OC)n3)no2)CCO1` (stereo not given) were, in that order, -6% and 0.74.
The like results for `CC(C)c1cncc(NC(=O)Cc2ccn(C)n2)c1` were, in that order, -8% and 0.94.
`COCCN1CC[C@@]2(CCC1=O)CN(c1ncccc1F)CCN2C`: the “% Inhibition” value is -1% and the Z score turned out to be 0.12.
The like results for `Cc1cnc([C@H]2CCN(S(=O)(=O)c3ccc4c(c3)CCC4)C2)n1C(C)C` were, in that order, -2% and 0.24.
For `CCCc1cc(CNC(=O)c2ccc(N[C@@H](C)c3nncn3C)nc2)on1`, in that order: 5% and -0.69.
The like results for `CC(c1nnc(-c2ccccc2F)s1)N1CCCC(N(C)C)CC1` (stereo not given) were, in that order, -2% and 0.31.
Consider `Nc1nonc1/C(=N\OC(=O)Nc1ccccc1)N1CCCCC1`, for which the “% Inhibition” value is on record as 6% and the Z score is given as -0.86.
For `Cc1noc(C)c1C(=O)N[C@H]1CCOC[C@@H]1OCc1ccccc1`, in that order: 7% and -0.87.
For `O=C(Nc1ccc(O)cc1)C1CCN(C(=O)C2CC3CCC2C3)CC1` (stereo not given), the “% Inhibition” value is given as -10% and the Z score is given as 1.09.
The like results for `Cn1cccc1-c1cc2n(n1)CCC(=O)N2CCCC(=O)NCCc1ccco1` were, in that order, -5% and 0.96.
The like results for `O=C1CC(C2CCCCN2Cc2ccc(Br)o2)CN1` (stereo not given) were, in that order, -7% and 1.14.
With `COCC(C)NC1C2CCC(C2)C1C(=O)OCc1ccccc1` (stereo not given), the “% Inhibition” value is -3% and the Z score came out at 0.4.
For `Cc1noc(C)c1S(=O)(=O)N1CCC[C@H]1C(=O)Nc1ccc(Oc2ccccc2)cc1`, in that order: -33% and 3.9.
The like results for `CCNC(=O)C1Cc2ccccc2N2CCN(c3ccc(OC)cc3)CC12` (stereo not given) were, in that order, 5% and -0.62.
For `COc1cccn(CC(=O)N(Cc2cnn(C)c2)C2CCCCC2)c1=O`, in that order: 5% and -0.68.
As for `Cn1ccc(CCNC(=O)NCCc2c[nH]c3ccc(F)cc23)n1`, the “% Inhibition” value was -3% and the Z score is on record as 0.44.
Take `Cc1nnc(N(C)Cc2ccc(-n3cccn3)cc2)o1`: the “% Inhibition” value amounted to 4% and the Z score is recorded as -0.55.
The like results for `Cc1nccn1[C@@H](C)Cc1nc(-c2ccc(F)c(F)c2)n[nH]1` were, in that order, 5% and -0.74.
For `CC(C)(C)c1cnc(COC(=O)c2nc(C3CC3)n3ccccc23)o1`, in that order: -9% and 1.19.
